One block for each binder: values may come before it.
Biological target: T1, human CXCR2 (human, UniProt P25025 1-360)
T1 sequence (looked up): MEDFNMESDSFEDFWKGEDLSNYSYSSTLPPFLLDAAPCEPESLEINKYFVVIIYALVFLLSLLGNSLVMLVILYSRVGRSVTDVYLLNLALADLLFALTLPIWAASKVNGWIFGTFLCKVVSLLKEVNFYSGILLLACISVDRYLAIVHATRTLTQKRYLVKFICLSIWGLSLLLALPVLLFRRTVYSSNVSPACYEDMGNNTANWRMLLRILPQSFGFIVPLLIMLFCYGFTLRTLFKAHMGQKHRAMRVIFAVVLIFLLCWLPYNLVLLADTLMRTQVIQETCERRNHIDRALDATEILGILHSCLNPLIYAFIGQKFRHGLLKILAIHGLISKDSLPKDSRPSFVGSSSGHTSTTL
Assay: cell-based or functional assay

EC50 (U937 FLIPR activity): 5.6 µg/mL
B1: human CXCL8 point mutant L49A (ligand)
chain: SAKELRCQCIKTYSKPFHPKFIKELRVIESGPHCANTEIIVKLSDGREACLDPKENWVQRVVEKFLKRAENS

EC50 (U937 FLIPR activity): 1.9 µg/mL
B2: human CXCL8 point mutant A35P (ligand)
chain: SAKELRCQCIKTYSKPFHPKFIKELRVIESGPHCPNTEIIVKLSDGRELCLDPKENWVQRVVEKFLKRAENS

Reference: US20180362631A1 (Eli Lilly, published 2018)
